# Laboratory results taken from the supplement of paper PMC8728848.
# Some of the results follow.
# B1: MpL2 (Macrolepiota procera) (protein)
# chain: MSTQVSSGQTYKITNVKAGTVIRLSGEDNKSIIGYPYHSGKNQQWTFNWTGKAWTLRSASSGSYLGIEGTPADGTRLVAVNDPFEWHIWRDEANENAFRIFVPFTNYNLDLSGYGDTTPGTPVQLWWTWEGLHQTWTIDRP
# Experiments:
# Assay in all cases: glycan array binding signal (z-score within array); higher = stronger binding
# Settings in all cases: glycan notation: IUPAC condensed, linker removed; mutation: D22R
# [1] = target: Fuc(a1-2)Gal6S(b1-3)GlcNAc
# How it was run: (§1)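 Columns mapping to the same glycan were averaged after glycan names were converted to IUPAC-condensed notation. The data come from 3228 arrays in the Consortium for Functional Glycomics database, limited to those with an available protein sequence. Binding is reported as a within-array Z-score averaged across arrays of one protein sequence and across linkers.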
# [2] = target: Fuc(a1-2)Gal6S(b1-3)GlcNAc6S
# How it was run: as §1
# Fuc(a1-2)Gal6S(b1-4)Glc = target: Fuc(a1-2)Gal6S(b1-4)Glc
# How it was run: as §1
# [3] = target: Fuc(a1-2)Gal6S(b1-4)Glc6S
# How it was run: as §1
# Fuc(a1-2)[Gal(a1-3)]Gal = target: Fuc(a1-2)[Gal(a1-3)]Gal
# How it was run: as §1
# [4] = target: Fuc(a1-2)[Gal(a1-3)]Gal(b1-3)GalNAc
# How it was run: as §1
# [5] = target: Fuc(a1-2)[Gal(a1-3)]Gal(b1-3)GalNAc(b1-3)Gal(a1-4)Gal(b1-4)Glc
# How it was run: as §1
# [6] = target: Fuc(a1-2)[Gal(a1-3)]Gal(b1-3)GlcNAc
# How it was run: as §1
# [7] = target: Fuc(a1-2)[Gal(a1-3)]Gal(b1-3)GlcNAc(b1-2)Man(a1-3)[Fuc(a1-2)[Gal(a1-3)]Gal(b1-3)GlcNAc(b1-2)Man(a1-6)]Man(b1-4)GlcNAc(b1-4)GlcNAc
# How it was run: as §1
# [8] = target: Fuc(a1-2)[Gal(a1-3)]Gal(b1-3)GlcNAc(b1-2)Man(a1-3)[Fuc(a1-2)[Gal(a1-3)]Gal(b1-3)GlcNAc(b1-2)Man(a1-6)]Man(b1-4)GlcNAc(b1-4)[Fuc(a1-6)]GlcNAc
# How it was run: as §1
# [9] = target: Fuc(a1-2)[Gal(a1-3)]Gal(b1-3)GlcNAc(b1-3)GalNAc
# How it was run: as §1
# [10] = target: Fuc(a1-2)[Gal(a1-3)]Gal(b1-3)GlcNAc(b1-6)GalNAc
# How it was run: as §1
# [11] = target: Fuc(a1-2)[Gal(a1-3)]Gal(b1-4)Glc
# How it was run: as §1
# [12] = target: Fuc(a1-2)[Gal(a1-3)]Gal(b1-4)GlcNAc
# How it was run: as §1
# [13] = target: Fuc(a1-2)[Gal(a1-3)]Gal(b1-4)GlcNAc(b1-2)Man
# How it was run: as §1
# [14] = target: Fuc(a1-2)[Gal(a1-3)]Gal(b1-4)GlcNAc(b1-2)Man(a1-3)[Fuc(a1-2)[Gal(a1-3)]Gal(b1-4)GlcNAc(b1-2)Man(a1-6)]Man(b1-4)GlcNAc(b1-4)GlcNAc
# How it was run: as §1
# [15] = target: Fuc(a1-2)[Gal(a1-3)]Gal(b1-4)GlcNAc(b1-2)Man(a1-3)[Fuc(a1-2)[Gal(a1-3)]Gal(b1-4)GlcNAc(b1-2)Man(a1-6)]Man(b1-4)GlcNAc(b1-4)[Fuc(a1-6)]GlcNAc
# How it was run: as §1
# [16] = target: Fuc(a1-2)[Gal(a1-3)]Gal(b1-4)GlcNAc(b1-3)GalNAc
# How it was run: as §1
# [17] = target: Fuc(a1-2)[Gal(a1-3)]Gal(b1-4)GlcNAc(b1-3)[Fuc(a1-2)[Gal(a1-3)]Gal(b1-4)GlcNAc(b1-6)]GalNAc
# How it was run: as §1
# [18] = target: Fuc(a1-2)[Gal(a1-3)]Gal(b1-4)GlcNAc(b1-6)GalNAc
# How it was run: as §1
# [19] = target: Fuc(a1-2)[Gal(a1-3)]Gal(b1-4)[Fuc(a1-3)]Glc
# How it was run: as §1
# [20] = target: Fuc(a1-2)[Gal(a1-3)]Gal(b1-4)[Fuc(a1-3)]GlcNAc
# How it was run: as §1
# [21] = target: Fuc(a1-2)[Gal(a1-3)]Gal(b1-4)[Fuc(a1-3)]GlcNAc(b1-3)GalNAc
# How it was run: as §1
# [22] = target: Fuc(a1-2)[Gal(a1-4)]Gal(b1-4)GlcNAc
# How it was run: as §1
# [23] = target: Fuc(a1-2)[GalNAc(a1-3)]Gal
# How it was run: as §1
# [24] = target: Fuc(a1-2)[GalNAc(a1-3)]Gal(b1-3)GalNAc(a1-3)[Fuc(a1-2)]Gal(b1-4)GlcNAc
# How it was run: as §1
# [25] = target: Fuc(a1-2)[GalNAc(a1-3)]Gal(b1-3)GalNAc(b1-3)Gal(a1-4)Gal(b1-4)Glc
# How it was run: as §1
# [26] = target: Fuc(a1-2)[GalNAc(a1-3)]Gal(b1-3)GlcNAc
# How it was run: as §1
# [27] = target: Fuc(a1-2)[GalNAc(a1-3)]Gal(b1-3)GlcNAc(b1-2)Man(a1-3)[Fuc(a1-2)[GalNAc(a1-3)]Gal(b1-3)GlcNAc(b1-2)Man(a1-6)]Man(b1-4)GlcNAc(b1-4)GlcNAc
# How it was run: as §1
# [28] = target: Fuc(a1-2)[GalNAc(a1-3)]Gal(b1-3)GlcNAc(b1-2)Man(a1-3)[Fuc(a1-2)[GalNAc(a1-3)]Gal(b1-3)GlcNAc(b1-2)Man(a1-6)]Man(b1-4)GlcNAc(b1-4)[Fuc(a1-6)]GlcNAc
# How it was run: as §1
# [29] = target: Fuc(a1-2)[GalNAc(a1-3)]Gal(b1-3)GlcNAc(b1-3)GalNAc
# How it was run: as §1
# [30] = target: Fuc(a1-2)[GalNAc(a1-3)]Gal(b1-3)GlcNAc(b1-6)GalNAc
# How it was run: as §1
# [31] = target: Fuc(a1-2)[GalNAc(a1-3)]Gal(b1-4)Glc
# How it was run: as §1
# [32] = target: Fuc(a1-2)[GalNAc(a1-3)]Gal(b1-4)GlcNAc
# How it was run: as §1
# [33] = target: Fuc(a1-2)[GalNAc(a1-3)]Gal(b1-4)GlcNAc(b1-2)Man
# How it was run: as §1
# [34] = target: Fuc(a1-2)[GalNAc(a1-3)]Gal(b1-4)GlcNAc(b1-2)Man(a1-3)[Fuc(a1-2)[GalNAc(a1-3)]Gal(b1-4)GlcNAc(b1-2)Man(a1-6)]Man(b1-4)GlcNAc(b1-4)GlcNAc
# How it was run: as §1
# [35] = target: Fuc(a1-2)[GalNAc(a1-3)]Gal(b1-4)GlcNAc(b1-2)Man(a1-3)[Fuc(a1-2)[GalNAc(a1-3)]Gal(b1-4)GlcNAc(b1-2)Man(a1-6)]Man(b1-4)GlcNAc(b1-4)[Fuc(a1-6)]GlcNAc
# How it was run: as §1
# [36] = target: Fuc(a1-2)[GalNAc(a1-3)]Gal(b1-4)GlcNAc(b1-3)Gal(b1-4)GlcNAc
# How it was run: as §1
# [37] = target: Fuc(a1-2)[GalNAc(a1-3)]Gal(b1-4)GlcNAc(b1-3)Gal(b1-4)GlcNAc(b1-3)Gal(b1-4)GlcNAc
# How it was run: as §1
# [38] = target: Fuc(a1-2)[GalNAc(a1-3)]Gal(b1-4)GlcNAc(b1-3)GalNAc
# How it was run: as §1
# [39] = target: Fuc(a1-2)[GalNAc(a1-3)]Gal(b1-4)GlcNAc(b1-3)[Fuc(a1-2)[GalNAc(a1-3)]Gal(b1-4)GlcNAc(b1-6)]GalNAc
# How it was run: as §1
# [40] = target: Fuc(a1-2)[GalNAc(a1-3)]Gal(b1-4)GlcNAc(b1-6)GalNAc
# How it was run: as §1
# [41] = target: Fuc(a1-2)[GalNAc(a1-3)]Gal(b1-4)[Fuc(a1-3)]GlcNAc
# How it was run: as §1
# [42] = target: Fuc(a1-2)[GalNAc(a1-3)]Gal(b1-4)[Fuc(a1-3)]GlcNAc(b1-3)GalNAc
# How it was run: as §1
# [43] = target: Fuc(a1-2)[GalNAc(a1-4)]Gal(b1-4)GlcNAc
# How it was run: as §1
binder,measurement,setting,value
B1,glycan array binding signal (z-score),[1],-0.339
same,glycan array binding signal (z-score),[2],0.5
same,glycan array binding signal (z-score),Fuc(a1-2)Gal6S(b1-4)Glc,0.081
same,glycan array binding signal (z-score),[3],-0.429
same,glycan array binding signal (z-score),Fuc(a1-2)[Gal(a1-3)]Gal,-0.752
same,glycan array binding signal (z-score),[4],-0.003
same,glycan array binding signal (z-score),[5],-0.48
same,glycan array binding signal (z-score),[6],-0.127
same,glycan array binding signal (z-score),[7],-0.327
same,glycan array binding signal (z-score),[8],-0.205
same,glycan array binding signal (z-score),[9],-0.191
same,glycan array binding signal (z-score),[10],-0.33
same,glycan array binding signal (z-score),[11],0.346
same,glycan array binding signal (z-score),[12],-0.343
same,glycan array binding signal (z-score),[13],-0.047
same,glycan array binding signal (z-score),[14],-0.076
same,glycan array binding signal (z-score),[15],-0.307
same,glycan array binding signal (z-score),[16],0.092
same,glycan array binding signal (z-score),[17],-0.178
same,glycan array binding signal (z-score),[18],0.319
same,glycan array binding signal (z-score),[19],0.174
same,glycan array binding signal (z-score),[20],0.262
same,glycan array binding signal (z-score),[21],0.532
same,glycan array binding signal (z-score),[22],0.005
same,glycan array binding signal (z-score),[23],-0.075
same,glycan array binding signal (z-score),[24],-0.065
same,glycan array binding signal (z-score),[25],-0.533
same,glycan array binding signal (z-score),[26],0.022
same,glycan array binding signal (z-score),[27],-0.536
same,glycan array binding signal (z-score),[28],0.039
same,glycan array binding signal (z-score),[29],0.628
same,glycan array binding signal (z-score),[30],-0.21
same,glycan array binding signal (z-score),[31],-0.092
same,glycan array binding signal (z-score),[32],-0.376
same,glycan array binding signal (z-score),[33],-0.511
same,glycan array binding signal (z-score),[34],0.028
same,glycan array binding signal (z-score),[35],-0.12
same,glycan array binding signal (z-score),[36],-0.256
same,glycan array binding signal (z-score),[37],0.154
same,glycan array binding signal (z-score),[38],-0.523
same,glycan array binding signal (z-score),[39],-0.395
same,glycan array binding signal (z-score),[40],-0.841
same,glycan array binding signal (z-score),[41],-0.415
same,glycan array binding signal (z-score),[42],1.3
same,glycan array binding signal (z-score),[43],-0.694
